Assay results: PMC3718817 (2013)
These are yes or no findings as the source states them, for the method shown. In cells and extracts the contact can be indirect. For some assays here: Sequences can lack the tags named with a protein.

By UniProt entry, the sequences of proteins in these tests, tags left out.
UniProt Q03940: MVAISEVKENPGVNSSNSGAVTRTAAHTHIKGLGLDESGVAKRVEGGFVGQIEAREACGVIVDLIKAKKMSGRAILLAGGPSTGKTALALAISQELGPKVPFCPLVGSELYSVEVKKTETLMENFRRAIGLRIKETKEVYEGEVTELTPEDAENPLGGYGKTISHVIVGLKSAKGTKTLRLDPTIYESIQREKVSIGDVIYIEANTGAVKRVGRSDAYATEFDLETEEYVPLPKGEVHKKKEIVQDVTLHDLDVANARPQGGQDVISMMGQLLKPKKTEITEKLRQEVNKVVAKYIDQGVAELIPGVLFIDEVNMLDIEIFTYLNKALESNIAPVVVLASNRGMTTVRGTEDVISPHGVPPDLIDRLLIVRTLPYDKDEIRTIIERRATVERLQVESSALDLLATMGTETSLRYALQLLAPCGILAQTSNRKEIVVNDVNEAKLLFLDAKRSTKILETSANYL
UniProt Q12464: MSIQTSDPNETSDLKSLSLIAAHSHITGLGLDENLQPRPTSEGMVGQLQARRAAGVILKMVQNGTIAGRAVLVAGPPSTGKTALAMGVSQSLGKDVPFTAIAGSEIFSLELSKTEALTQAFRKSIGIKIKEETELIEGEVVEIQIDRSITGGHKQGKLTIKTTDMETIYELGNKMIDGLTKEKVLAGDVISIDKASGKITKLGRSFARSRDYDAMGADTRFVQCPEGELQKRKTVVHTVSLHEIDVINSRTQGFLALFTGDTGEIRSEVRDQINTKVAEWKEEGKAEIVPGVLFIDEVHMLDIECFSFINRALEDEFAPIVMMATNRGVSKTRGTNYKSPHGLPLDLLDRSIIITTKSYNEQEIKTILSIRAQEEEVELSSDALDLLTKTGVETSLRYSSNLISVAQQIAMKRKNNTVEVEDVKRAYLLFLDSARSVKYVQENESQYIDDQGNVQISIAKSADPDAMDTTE
UniProt P38873: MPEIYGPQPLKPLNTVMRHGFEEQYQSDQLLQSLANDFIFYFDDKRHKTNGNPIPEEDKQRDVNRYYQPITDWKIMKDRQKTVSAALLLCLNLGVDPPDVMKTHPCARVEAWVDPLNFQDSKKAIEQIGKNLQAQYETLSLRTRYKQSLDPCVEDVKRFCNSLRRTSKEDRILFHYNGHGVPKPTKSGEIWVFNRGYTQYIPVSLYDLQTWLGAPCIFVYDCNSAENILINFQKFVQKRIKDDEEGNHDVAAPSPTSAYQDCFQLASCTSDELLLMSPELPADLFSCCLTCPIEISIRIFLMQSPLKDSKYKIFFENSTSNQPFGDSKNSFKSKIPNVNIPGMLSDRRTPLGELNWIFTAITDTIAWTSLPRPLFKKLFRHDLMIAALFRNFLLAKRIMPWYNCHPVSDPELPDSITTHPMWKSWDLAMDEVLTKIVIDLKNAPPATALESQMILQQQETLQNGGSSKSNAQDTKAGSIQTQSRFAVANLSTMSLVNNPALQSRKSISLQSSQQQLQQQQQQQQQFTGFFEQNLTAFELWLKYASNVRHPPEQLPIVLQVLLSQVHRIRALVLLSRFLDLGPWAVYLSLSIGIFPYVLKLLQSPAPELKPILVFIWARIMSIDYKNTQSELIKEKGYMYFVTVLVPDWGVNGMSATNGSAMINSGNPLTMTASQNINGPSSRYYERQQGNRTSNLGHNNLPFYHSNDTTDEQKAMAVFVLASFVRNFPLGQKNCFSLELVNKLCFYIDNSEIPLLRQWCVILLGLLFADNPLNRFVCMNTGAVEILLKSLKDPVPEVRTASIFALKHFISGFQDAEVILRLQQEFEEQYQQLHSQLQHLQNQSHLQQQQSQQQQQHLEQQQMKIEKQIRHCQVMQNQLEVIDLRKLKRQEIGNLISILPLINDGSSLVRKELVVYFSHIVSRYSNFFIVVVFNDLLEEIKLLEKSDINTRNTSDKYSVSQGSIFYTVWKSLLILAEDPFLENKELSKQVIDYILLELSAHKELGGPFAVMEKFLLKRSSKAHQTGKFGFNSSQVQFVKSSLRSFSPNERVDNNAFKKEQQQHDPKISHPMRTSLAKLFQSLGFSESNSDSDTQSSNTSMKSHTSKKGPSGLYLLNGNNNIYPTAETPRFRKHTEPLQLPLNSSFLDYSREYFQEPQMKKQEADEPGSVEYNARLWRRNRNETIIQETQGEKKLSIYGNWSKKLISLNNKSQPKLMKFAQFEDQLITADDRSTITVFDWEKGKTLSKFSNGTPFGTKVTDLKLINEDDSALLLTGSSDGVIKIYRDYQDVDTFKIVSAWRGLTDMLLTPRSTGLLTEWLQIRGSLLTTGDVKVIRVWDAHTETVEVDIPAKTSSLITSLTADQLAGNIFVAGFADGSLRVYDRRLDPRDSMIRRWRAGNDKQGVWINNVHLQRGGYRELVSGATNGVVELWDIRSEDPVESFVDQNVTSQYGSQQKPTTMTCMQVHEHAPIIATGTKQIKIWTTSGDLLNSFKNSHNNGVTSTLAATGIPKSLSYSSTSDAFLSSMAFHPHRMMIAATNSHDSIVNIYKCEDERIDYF
UniProt P00722: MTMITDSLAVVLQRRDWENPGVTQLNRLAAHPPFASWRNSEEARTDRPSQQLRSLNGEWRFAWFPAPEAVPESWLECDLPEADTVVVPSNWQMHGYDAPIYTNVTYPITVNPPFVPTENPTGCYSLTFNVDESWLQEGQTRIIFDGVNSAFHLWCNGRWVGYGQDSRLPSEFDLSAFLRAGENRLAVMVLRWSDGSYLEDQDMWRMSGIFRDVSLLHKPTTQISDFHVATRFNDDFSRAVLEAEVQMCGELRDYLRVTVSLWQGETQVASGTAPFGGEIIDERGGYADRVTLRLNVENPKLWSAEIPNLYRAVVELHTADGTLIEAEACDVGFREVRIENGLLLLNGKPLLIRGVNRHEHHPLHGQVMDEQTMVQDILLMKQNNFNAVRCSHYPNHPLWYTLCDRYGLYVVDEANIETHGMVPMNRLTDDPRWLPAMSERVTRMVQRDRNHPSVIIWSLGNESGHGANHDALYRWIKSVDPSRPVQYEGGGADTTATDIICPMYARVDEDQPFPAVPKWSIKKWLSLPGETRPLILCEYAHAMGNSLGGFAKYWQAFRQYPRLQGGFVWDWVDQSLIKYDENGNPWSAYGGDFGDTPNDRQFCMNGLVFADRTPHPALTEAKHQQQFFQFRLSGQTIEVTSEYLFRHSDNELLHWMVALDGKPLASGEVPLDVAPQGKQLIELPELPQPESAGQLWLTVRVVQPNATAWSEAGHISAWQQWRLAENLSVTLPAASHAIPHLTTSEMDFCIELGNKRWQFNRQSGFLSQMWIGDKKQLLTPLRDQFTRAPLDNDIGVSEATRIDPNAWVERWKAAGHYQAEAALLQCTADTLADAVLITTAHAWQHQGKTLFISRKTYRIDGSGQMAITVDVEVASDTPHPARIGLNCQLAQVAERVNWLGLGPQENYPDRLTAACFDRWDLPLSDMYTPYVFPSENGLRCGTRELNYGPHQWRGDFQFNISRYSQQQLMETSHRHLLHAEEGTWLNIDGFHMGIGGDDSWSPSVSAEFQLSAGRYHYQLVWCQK

Legend:
Assay in all cases: pull-down; GST fusion proteins affinity purified from crude extracts of JC1624/pRS314 expressing β-galactosidase (GAL1p-lacZ); detected by anti-β-galactosidase immunoblot
[1] = target: T1, GST-Snf4 (S. cerevisiae) (UniProt P12904)
T1 sequence: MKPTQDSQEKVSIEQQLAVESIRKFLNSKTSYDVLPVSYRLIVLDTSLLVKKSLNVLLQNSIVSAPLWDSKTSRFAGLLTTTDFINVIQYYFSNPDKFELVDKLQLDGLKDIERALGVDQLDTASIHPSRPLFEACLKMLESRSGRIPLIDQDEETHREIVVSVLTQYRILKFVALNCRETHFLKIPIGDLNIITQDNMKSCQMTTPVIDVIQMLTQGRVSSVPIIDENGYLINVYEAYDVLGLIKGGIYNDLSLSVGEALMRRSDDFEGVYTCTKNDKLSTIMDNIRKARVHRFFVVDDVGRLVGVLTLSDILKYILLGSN

[2] = target: GST-Rvb1 (S. cerevisiae) (UniProt Q03940)
[3] = target: GST-Rvb2 (S. cerevisiae) (UniProt Q12464)
[4] = target: GST-Kog1 (S. cerevisiae) (UniProt P38873)
[5] = target: T2, GST-Ygr130C (S. cerevisiae) (UniProt P53278)
T2 sequence: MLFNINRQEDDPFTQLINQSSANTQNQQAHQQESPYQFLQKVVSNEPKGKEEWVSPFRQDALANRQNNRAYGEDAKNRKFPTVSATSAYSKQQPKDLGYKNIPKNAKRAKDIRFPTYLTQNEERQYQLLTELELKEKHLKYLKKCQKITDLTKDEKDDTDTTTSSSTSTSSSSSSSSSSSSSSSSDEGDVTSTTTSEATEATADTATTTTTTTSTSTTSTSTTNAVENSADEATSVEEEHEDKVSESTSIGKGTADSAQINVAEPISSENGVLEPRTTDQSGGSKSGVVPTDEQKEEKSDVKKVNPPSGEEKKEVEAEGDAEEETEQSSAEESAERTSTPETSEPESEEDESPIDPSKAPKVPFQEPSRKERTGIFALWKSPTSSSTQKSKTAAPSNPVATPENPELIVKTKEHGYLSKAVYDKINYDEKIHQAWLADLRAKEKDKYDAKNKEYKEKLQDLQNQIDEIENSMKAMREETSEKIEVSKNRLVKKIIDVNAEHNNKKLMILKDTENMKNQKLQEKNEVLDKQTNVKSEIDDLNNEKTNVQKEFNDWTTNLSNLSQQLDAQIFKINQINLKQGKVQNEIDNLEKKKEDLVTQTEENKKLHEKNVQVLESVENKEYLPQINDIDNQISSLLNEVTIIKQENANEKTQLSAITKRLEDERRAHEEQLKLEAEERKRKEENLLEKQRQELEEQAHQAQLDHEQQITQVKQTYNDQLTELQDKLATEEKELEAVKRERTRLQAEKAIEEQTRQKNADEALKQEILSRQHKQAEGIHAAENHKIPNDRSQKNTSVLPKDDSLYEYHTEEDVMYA

[6] = target: T3, GST-Nop6 (S. cerevisiae) (UniProt Q07623)
T3 sequence: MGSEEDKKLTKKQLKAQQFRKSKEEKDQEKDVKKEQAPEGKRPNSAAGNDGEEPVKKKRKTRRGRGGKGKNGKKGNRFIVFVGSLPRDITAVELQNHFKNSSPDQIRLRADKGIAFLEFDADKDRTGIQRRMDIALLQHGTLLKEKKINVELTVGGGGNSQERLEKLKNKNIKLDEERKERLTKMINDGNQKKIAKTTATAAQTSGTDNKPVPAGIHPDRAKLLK

[7] = target: T4, GST-Bub3 (S. cerevisiae) (UniProt P26449)
T4 sequence: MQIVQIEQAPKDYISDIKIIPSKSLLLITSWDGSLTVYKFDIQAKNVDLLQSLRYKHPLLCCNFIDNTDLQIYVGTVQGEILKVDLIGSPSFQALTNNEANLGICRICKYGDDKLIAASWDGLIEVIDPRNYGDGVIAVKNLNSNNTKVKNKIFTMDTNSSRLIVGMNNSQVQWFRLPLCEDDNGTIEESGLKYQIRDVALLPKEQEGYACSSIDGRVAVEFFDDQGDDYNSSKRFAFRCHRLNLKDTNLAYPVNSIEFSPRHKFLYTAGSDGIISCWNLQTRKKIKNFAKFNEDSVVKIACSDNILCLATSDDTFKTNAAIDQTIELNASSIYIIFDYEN

[8] = target: T5, GST-Ahc1 (S. cerevisiae) (UniProt Q12433)
T5 sequence: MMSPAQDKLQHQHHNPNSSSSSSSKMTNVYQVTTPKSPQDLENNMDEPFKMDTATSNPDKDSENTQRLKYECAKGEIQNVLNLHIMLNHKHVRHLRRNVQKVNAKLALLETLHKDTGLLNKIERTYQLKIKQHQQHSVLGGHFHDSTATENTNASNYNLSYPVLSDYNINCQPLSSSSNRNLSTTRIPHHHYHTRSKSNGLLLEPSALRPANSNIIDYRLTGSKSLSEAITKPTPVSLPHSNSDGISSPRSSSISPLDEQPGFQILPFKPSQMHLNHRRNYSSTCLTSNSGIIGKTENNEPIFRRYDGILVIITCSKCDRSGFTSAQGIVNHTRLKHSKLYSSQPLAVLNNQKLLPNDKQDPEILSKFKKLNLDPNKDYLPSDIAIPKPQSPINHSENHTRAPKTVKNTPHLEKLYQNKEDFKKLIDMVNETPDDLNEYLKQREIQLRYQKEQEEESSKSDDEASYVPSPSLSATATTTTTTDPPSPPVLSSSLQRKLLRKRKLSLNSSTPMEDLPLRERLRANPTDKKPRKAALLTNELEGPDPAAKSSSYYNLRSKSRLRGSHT

Measured: binding

β-galactosidase (from UniProt P00722 1-1024) (enzyme)
no binding: all assays above
